Laboratory results reported in ChEMBL document CHEMBL1201862, “PubChem BioAssay data set” (2004).
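Growth conditions: 96-well plates. Treatment: test compound, 48 hours, 5 concentrations. Analysis: linear interpolation between bracketing concentrations; unreached endpoints set to highest concentration. GI50: concentration for 50% inhibition of growth.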 The source made the active and inactive calls. No stated cut-off is given here; in the data, active = GI50 up to about 1.1 µM and inactive = higher.

system: NCI-H322M; assay: NCI-60 cell line screen, 48 h

Row | SMILES | GI50
1 | O=c1c2ccccc2oc2nc3n(c(=O)c12)CCCS3 | inactive: > 100 µM
2 | C=CC[C@@H]1C(=O)[C@@]2(O[Si](C(C)C)(C(C)C)C(C)C)CC[C@@H]1C[C@H]2NC(=O)OCC(Cl)(Cl)Cl | inactive: > 100 µM
3 | Clc1cccc(Cl)c1C1SCc2nc3ncccc3n21 (stereo not given) | inactive: > 100 µM
4 | CC1(C)OC(=S)N(c2ccccc2)C12C=Cc1cc3ccccc3cc1O2 (stereo not given) | inactive: > 100 µM
5 | Cc1csc(NC23CC4CC(CC(C4)C2)C3)[n+]1C(P(=O)([O-])O)P(=O)(O)O (stereo not given) | inactive: > 100 µM
6 | Cc1ccc(S(=O)(=O)OCC23CCC(CC2)C2CC23)cc1 (stereo not given) | inactive: 95.3 µM
7 | FC(F)(F)c1nc(Br)[nH]c1C(F)(F)F | inactive: > 100 µM
8 | Nc1cccc(/C=C/CN2CCN(CCOC(c3ccccc3)c3ccccc3)CC2)c1 | inactive: 14.2 µM
9 | Cc1cc2nc(C=C(C(F)(F)F)C(F)(F)F)oc2cc1C | inactive: 2.2 µM
10 | CCN(C(=S)N[C@@H](Cc1ccccc1)C(=O)N[C@@H](CC(C)C)C(=O)OC)c1ccccc1 | inactive: > 100 µM
11 | OC(C1CCCC1=N/N=C1/CCCC1C(O)(C(F)(F)Cl)C(F)(F)Cl)(C(F)(F)Cl)C(F)(F)Cl (stereo not given) | inactive: > 10 µM
12 | O=c1[nH]cnc2c(COCCO)c[nH]c12 | inactive: > 100 µM
13 | Cc1ccc(/C=C/C(=N/NC(=O)N/N=C(/C=C/c2ccc(C)cc2)C(C)C)C(C)C)cc1 | inactive: > 10 µM
14 | O=[N+]([O-])c1cccc([N+](=O)[O-])c1S(=O)(=O)c1ccccc1 | inactive: 19.2 µM
15 | Brc1ccc2c(c1)C1(c3cc(Br)ccc3-2)c2cc(Br)ccc2-c2ccc(Br)cc21 | inactive: > 100 µM
16 | C=C1CC2OC2(C(=O)O[C@H]2CCC3[C@@H]4CCC5=CC(=O)CC[C@]5(C)C4CC[C@@]32C)C1=O (stereo not given in full) | inactive: 17 µM
17 | CCOc1ccc(/C=C(\Cl)c2ccc(OC)cc2)cc1 | inactive: > 100 µM
18 | CCCNC(=S)N/C=C1\C(=O)Nc2ccccc2C1=O | inactive: > 100 µM

Row | SMILES | GI50
19 | C/C=C(/CBr)CCC(Br)C(C)(C)Cl.C/C=C(\CBr)CCC(Br)C(C)(C)Cl (stereo not given) | inactive: > 10 µM
20 | CN(C)c1ccc(/C=N\NC(=O)CSCC(=O)N/N=C/c2ccc(N(C)C)cc2)cc1 | inactive: 31.2 µM
21 | COC(=O)CC1C2CC3C(C2=O)C13 (stereo not given) | inactive: > 100 µM
22 | CSc1ccsc1-c1sc(-c2cc(SC)c(-c3sc(-c4cc(SC)c(-c5sccc5SC)s4)cc3SC)s2)cc1SC | inactive: > 100 µM
23 | O=C1Nc2ccccc2/C1=N/Nc1ccc([N+](=O)[O-])cc1 | inactive: 25.3 µM
24 | COc1ccc2c(c1)N=C1CSC(c3c(Cl)cccc3[N+](=O)[O-])N1C2 (stereo not given) | inactive: 60.7 µM
25 | COc1ccc(/C=N/c2ccc(-c3nc4ccccc4s3)cc2)cc1OC | inactive: 43.4 µM
26 | O=C(c1ccco1)N(C(=O)N1CCCCC1)c1ccccc1 | inactive: > 100 µM
27 | NCCCNCCCCN1CCOC1=O | inactive: > 100 µM
28 | Cc1c(C)c([N+](=O)[O-])c2c(c1N)C(=O)c1ccccc1C2=O | inactive: > 100 µM
29 | CC(=O)OCC(OC(C)=O)C(OC(C)=O)C(OC(C)=O)C(C=NN(C(C)=O)S(=O)(=O)c1ccc(/C=C2\NC(=O)N(C)C2=O)cc1)OC(C)=O (stereo not given) | inactive: 53.8 µM
30 | COc1ccc(/C=C/C(=O)c2sc(NC(=S)NC(=O)c3ccc(Cl)cc3)nc2C)cc1OC | inactive: 59.3 µM
31 | O=C(Nc1ccc([N+](=O)[O-])cc1[N+](=O)[O-])C(=O)C(C(=O)c1ccc(Cl)c(Cl)c1)C1OC(=O)c2ccccc21 (stereo not given) | inactive: 27 µM
32 | COC(=O)/C(=N/NC(C)(C)C)C(C(=O)C=C(C)C)C(=O)C(=O)Nc1ccc(Cl)cc1C (stereo not given) | inactive: > 100 µM
33 | CC(Oc1ccc(Oc2cnc3ccc(Cl)cc3n2)cc1)C(=O)O (stereo not given) | inactive: > 100 µM
34 | c1ccc(C2OC3(CCC[C@H]4C[C@H]43)O[C@H]2c2ccccc2)cc1 (stereo not given in full) | inactive: 70.3 µM
35 | C=CCOc1ccc(C2(O)c3ccccc3C3=NCCCN32)cc1 (stereo not given) | inactive: 59.3 µM
